Measurements as given in PubChem BioAssay AID2147 (National Center for Advancing Translational Sciences (NCATS), 2009).
Out of some 230,000 compounds screened, about 3,600 (1.6%) were called active. Inconclusive results, whose numbers are uncertain, are shown with a selection of clear calls. Calls come from the whole dose curve; as a rule, active = well fitted inhibition curve with a large enough effect (not every such curve was filed as active); inconclusive = small, poorly fitted or top-dose-only effect, or another doubt; inactive = no such curve, though single readings can be large or run the other way. Potencies beside an inconclusive call are fits to weak or partial responses and may not hold up.

Each compound was assayed against Lysine-specific demethylase 4E (Homo sapiens) (UniProt B2RXH2) (assay: qHTS Assay for Inhibitors of Human Jumonji Domain Containing 2E (JMJD2E)). Details: JMJD2E catalytic domain, FDH-coupled NADH fluorescence (FDH is formaldehyde dehydrogenase); series mostly up to 57.1 µM.
Sequence of UniProt B2RXH2 (B2RXH2 whole entry, looked up, the tested form may be a part): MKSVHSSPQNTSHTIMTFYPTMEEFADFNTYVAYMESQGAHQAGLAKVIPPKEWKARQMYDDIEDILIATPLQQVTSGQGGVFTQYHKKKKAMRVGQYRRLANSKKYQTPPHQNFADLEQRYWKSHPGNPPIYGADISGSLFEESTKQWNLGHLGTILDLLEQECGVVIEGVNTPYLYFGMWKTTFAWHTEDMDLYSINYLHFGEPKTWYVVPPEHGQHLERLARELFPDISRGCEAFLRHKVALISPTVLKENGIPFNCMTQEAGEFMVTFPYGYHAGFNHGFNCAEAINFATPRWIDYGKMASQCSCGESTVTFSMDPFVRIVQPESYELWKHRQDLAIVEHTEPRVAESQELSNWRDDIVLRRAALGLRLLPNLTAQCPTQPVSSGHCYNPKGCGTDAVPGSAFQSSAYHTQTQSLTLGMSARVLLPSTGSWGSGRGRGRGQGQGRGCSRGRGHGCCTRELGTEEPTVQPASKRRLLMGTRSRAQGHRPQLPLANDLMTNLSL
Note: nearly all actives have a fitted effect of over 50% in size.
Potency is the fitted concentration of half-maximal effect; tags give direction and shape of the fitted curve.

| Structure (SMILES) | Potency |
| --- | --- |
| COc1ccc2c3c(c(=O)oc2c1OCC(=O)C(C)(C)C)CCCC3 | inconclusive: 15.8 µM [inhibitor, partial curve] |
| NC(=O)CC(NC(=O)Cc1ccc(Br)cc1)c1ccc(NCC2CC2)c([N+](=O)[O-])c1 (centres undefined) | inactive |
| COc1cc(/C=C/C(=O)O)cc(S(=O)(=O)NCCO)c1OC | inconclusive: 39.8 µM [inhibitor, single point] |
| COc1ccc2cc(/C(C)=N/NC(=O)C3CC3)ccc2c1 | inconclusive: 31.6 µM [inhibitor, partial curve] |
| O=C(CNC(=O)OCc1ccccc1)Oc1cc2oc(=O)cc(-c3ccccc3)c2cc1Cl | inconclusive: 31.6 µM [inhibitor, partial curve] |
| CCn1cc(C(=O)OCC(=O)Nc2ccc(C(C)C)cc2)c(=O)c2ccc(C)nc21 | inactive |
| COc1ccc(-c2cc(=O)[nH][nH]2)cc1 | inconclusive: 1 µM [inhibitor, full curve] |
| Cc1ccc(N2C(=O)C(Cl)=C(Nc3c(C)n(C)n(-c4ccccc4)c3=O)C2=O)cc1 | inconclusive: 39.8 µM [inhibitor, single point] |
| O=C(COC(=O)c1cncc(Br)c1)NCc1ccc(F)cc1 | inactive |
| COc1ccc(-c2cc(-c3ccccc3O)[nH]n2)cc1 | inconclusive: 39.8 µM [inhibitor, single point] |
| COc1ccc(C(=O)Nc2scc(-c3ccc(Cl)cc3Cl)c2C(N)=O)cc1 | inconclusive: 35.5 µM [inhibitor, single point] |
| Cc1cc(NCc2ccccn2)nc2ccccc12 | inconclusive: 31.6 µM [inhibitor, single point] |
| Cc1ccc(CN2CC(C(=O)Nc3cc(S(C)(=O)=O)ccc3Cl)CC2=O)cc1 (centres undefined) | inconclusive: 39.8 µM [inhibitor, single point] |
| NS(=O)(=O)c1ccc(Nc2nc(-c3ccc4ccccc4c3)cs2)cc1 | inconclusive: 35.5 µM [inhibitor, single point] |
| Cn1ccnc1C(O)c1cc(C(C)(C)C)c(O)c(C(C)(C)C)c1 (centres undefined) | inconclusive: 31.6 µM [inhibitor, partial curve] |
| COC(=O)c1cc(Nc2cc(C)c3ccc(O)cc3n2)cc(C(=O)OC)c1 | inconclusive: 35.5 µM [inhibitor, partial curve] |
| Cc1ccc2oc(-c3ccccc3)c(O)c(=O)c2c1 | active: 14.1 µM |
| CCCCNc1ncnc2c1cnn2-c1ccc(C)cc1C | inactive |
| O=C(CS(=O)(=O)c1ccc(Cl)cc1)NCCS(=O)(=O)c1ccc(Cl)cc1 | inactive |
| CCOC(=O)c1[nH]c2ccc(OC)cc2c1NC(=O)CN1CCC2(CC1)OCCO2 | inconclusive: 28.2 µM [inhibitor, partial curve] |
| COc1cccc(/C=N/Nc2ncnc3scc(-c4ccccc4)c23)c1O | active: 14.1 µM |
| Cc1ccc(CSc2nc3c(cc2C#N)CCC3)cc1 | inactive |
| N/C(=N\NC(=O)c1cccs1)c1cc2ccccc2oc1=O | inactive |
| COc1ccc2cc(C(c3nnnn3Cc3ccc(F)cc3)N3CCCCCC3)c(=O)[nH]c2c1 (centres undefined) | inconclusive: 25.1 µM [inhibitor, partial curve] |
| O=C(CC(Nc1ccc(F)cc1)c1ccccc1)c1ccccc1 (centres undefined) | inactive |

| Structure (SMILES) | Potency |
| --- | --- |
| COc1ccccc1CN(Cc1cc2cc(C)cc(C)c2[nH]c1=O)Cc1nnnn1CC1CCCO1 (centres undefined) | inactive |
| O=C(NCC1CCCO1)c1cc(-c2ccccc2)nc2ccccc12 (centres undefined) | inconclusive: 35.5 µM [inhibitor, single point] |
| COC(=O)Cn1ccc(N(C)C)c(C#N)c1=O | inactive |
| CCN1CCN(C(c2cc3cc4c(cc3[nH]c2=O)OCO4)c2nnnn2C(C)(C)CC)CC1 (centres undefined) | inconclusive: 28.2 µM [inhibitor, partial curve] |
| Cc1ccc(-c2nc(CS(=O)CC(=O)NC3CCCC3)c(C)o2)cc1 (centres undefined) | inconclusive: 25.1 µM [inhibitor, single point] |
| O=C(O)c1nn2cc(CCO)cnc2c1Cl | inconclusive: 14.1 µM [inhibitor, partial curve] |
| O=C(NC(=S)NCc1ccccc1)c1ccccc1[N+](=O)[O-] | inactive |
| COc1ccc(/C=N/NC(=O)CSc2n[nH]c(=O)[nH]c2=O)cc1 | inactive |
| COc1ccc(-c2nc3cccc(C)n3c2NCc2ccco2)cc1OC | inconclusive: 28.2 µM [inhibitor, partial curve] |
| c1ccc(CC(Nc2ccccn2)c2ccccc2)cc1 (centres undefined) | inconclusive: 25.1 µM [inhibitor, single point] |
| Cc1ccc2c(C)cc(=S)[nH]c2c1 | inactive |
| Cc1ccc(/C=C2/SC(=O)NC2=S)o1 | inconclusive: 28.2 µM [inhibitor, partial curve] |
| O=S(=O)(Nc1ncccn1)c1ccc(-n2cnnn2)cc1 | inactive |
| Cc1ccc(C(=O)N2CCSC2=S)cc1 | inactive |
| CCCCc1ccc(NC(=O)CSC2=C(C#N)C(c3ccco3)C3=C(CCCC3=O)N2)cc1 (centres undefined) | inconclusive: 25.1 µM [inhibitor, partial curve] |
| COC(=O)c1c(C)[nH]c(C)c1C(=O)c1ccccc1Cc1ccccc1 | inactive |
| O=C(c1ccncc1)N1CCN(C(=O)c2cccs2)CC1 | inactive |
| COc1ccc(Cc2c3cc(OC)c(OC)cc3cc[n+]2C)cc1OC | inconclusive: 28.2 µM [inhibitor, single point] |
| COc1ccc2nc(NC(=O)CN3CCN(C)CC3)sc2c1 | inactive |
| Cn1cc(CNC(=O)c2cc(-c3ccccc3)nc3ccc(Br)cc23)cn1 | inactive |
| O=C(Nc1ccc(F)cc1)N(Cc1ccco1)Cc1cc2cc3c(cc2[nH]c1=O)OCO3 | inconclusive: 31.6 µM [inhibitor, partial curve] |
| CC(C)C(=O)N1CCc2cc(-c3csc(N)n3)ccc21 | inactive |
| CCn1c2ccccc2c2cc(CN3CCN(S(C)(=O)=O)CC3)ccc21 | inconclusive: 39.8 µM [inhibitor, single point] |
| COc1ccccc1C(=O)Nc1nc(-c2ccc3c(c2)OCCO3)cs1 | inconclusive: 35.5 µM [inhibitor, partial curve] |
